Variants at the background level are over-represented here.
B1: TPR 5TU (parent)
chain: GGAUCUUCUCGAUCUAACAAAAAAGACAAAUCUGCCACAAAGCUUGAGAGCAUCUUCGGAUGCAGAGGCGGCAGCCUUCGGUGGCGCGAUAGCGCCAACGUUCUCAACUAUGACACGCAAAACGCGUGCUCCGUUGAAUGGAGUUUAUCAUG

Variants of: B1
Test: polymerase ribozyme fitness, log enrichment relative to wild type (log ratio); higher = more active; in vitro selection for triplet polymerase activity
Summary of the method: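 Mutant libraries of each subunit of a heterodimeric triplet polymerase ribozyme were built by PCR and transcribed. Each library went through one round of in vitro selection in triplicate: annealing with biotinylated primer, partner subunit and triplets, frozen incubation at −7 °C, gel excision of extended constructs, streptavidin-bead capture and RT-PCR. Input and output libraries were Illumina-sequenced; only genotypes with ≥10 input reads and ≥1 read per output were kept. Fitness is log2(genotype enrichment/wild-type enrichment), using inverse-variance-weighted replicate averages.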
In the case of G86C G117A, the “polymerase ribozyme fitness (log ratio)” value is reported as -1.84.
For C87A U151A, the “polymerase ribozyme fitness (log ratio)” value was ≤ -4.2.
In the case of C87U A91U, the “polymerase ribozyme fitness (log ratio)” value is reported as ≤ -4.2.
With G88U A115C A120G the “polymerase ribozyme fitness (log ratio)” value was -3.89.
In the case of C85G C114U C116A C118U G141U, the “polymerase ribozyme fitness (log ratio)” value is reported as ≤ -4.2.
In the case of G86C C96G A142U, the “polymerase ribozyme fitness (log ratio)” value is reported as ≤ -4.2.
With C87A G152U the “polymerase ribozyme fitness (log ratio)” value was ≤ -4.2.
In the case of G86U A106C, the “polymerase ribozyme fitness (log ratio)” value is reported as -1.79.
With G86U C103A A121G the “polymerase ribozyme fitness (log ratio)” value was -2.73.
In the case of G88U A89C C123A, the “polymerase ribozyme fitness (log ratio)” value is reported as ≤ -4.2.
With G86U C96G U102G A138U U139C the “polymerase ribozyme fitness (log ratio)” value was ≤ -4.2.
With C87A C93U A106C A113U U151A the “polymerase ribozyme fitness (log ratio)” value was ≤ -4.2.
In the case of C87G C105A, the “polymerase ribozyme fitness (log ratio)” value is reported as ≤ -4.2.
With C87U U127A the “polymerase ribozyme fitness (log ratio)” value was -3.2.
With C85U A115C G128U the “polymerase ribozyme fitness (log ratio)” value was ≤ -4.2.
For G88C C105U, the “polymerase ribozyme fitness (log ratio)” value was ≤ -4.2.
With G86A C87U U144C the “polymerase ribozyme fitness (log ratio)” value was ≤ -4.2.
For C87U U90A C118G, the “polymerase ribozyme fitness (log ratio)” value was ≤ -4.2.
For C87G G136U G141C, the “polymerase ribozyme fitness (log ratio)” value was ≤ -4.2.
For U90A C103G A121G, the “polymerase ribozyme fitness (log ratio)” value was ≤ -4.2.
In the case of G86C C87G C108G, the “polymerase ribozyme fitness (log ratio)” value is reported as ≤ -4.2.
In the case of C87A U101C A142C, the “polymerase ribozyme fitness (log ratio)” value is reported as ≤ -4.2.
In the case of C87A A142U, the “polymerase ribozyme fitness (log ratio)” value is reported as ≤ -4.2.
For G86U G88A A107C C123A A138U, the “polymerase ribozyme fitness (log ratio)” value was ≤ -4.2.
For G88A G133C, the “polymerase ribozyme fitness (log ratio)” value was ≤ -4.2.
For C87A G117C U146C, the “polymerase ribozyme fitness (log ratio)” value was ≤ -4.2.
In the case of C85U U101G C108G, the “polymerase ribozyme fitness (log ratio)” value is reported as ≤ -4.2.
With C85G G92C A107C U139C the “polymerase ribozyme fitness (log ratio)” value was ≤ -4.2.
For C85U U148G, the “polymerase ribozyme fitness (log ratio)” value was ≤ -4.2.
With C87A G140A the “polymerase ribozyme fitness (log ratio)” value was ≤ -4.2.
For G88A C96A C103U, the “polymerase ribozyme fitness (log ratio)” value was ≤ -4.2.
With C85U A150C the “polymerase ribozyme fitness (log ratio)” value was -2.26.
For C87U C118U, the “polymerase ribozyme fitness (log ratio)” value was -0.642.
For U90G C96U G100U C132U G141A, the “polymerase ribozyme fitness (log ratio)” value was ≤ -4.2.
In the case of G86U G88A, the “polymerase ribozyme fitness (log ratio)” value is reported as ≤ -4.2.
In the case of A89G C99U A115G A137C, the “polymerase ribozyme fitness (log ratio)” value is reported as ≤ -4.2.
With C87A C103U A138C the “polymerase ribozyme fitness (log ratio)” value was ≤ -4.2.
With C85U G140U the “polymerase ribozyme fitness (log ratio)” value was -2.51.
For G86C C99U, the “polymerase ribozyme fitness (log ratio)” value was -2.83.
For C85G C125G U127A A137G, the “polymerase ribozyme fitness (log ratio)” value was ≤ -4.2.
With C87U U135G the “polymerase ribozyme fitness (log ratio)” value was ≤ -4.2.
For G88A C125U G141U, the “polymerase ribozyme fitness (log ratio)” value was ≤ -4.2.
With G86C A106G A142C the “polymerase ribozyme fitness (log ratio)” value was ≤ -4.2.
With C87A U145G the “polymerase ribozyme fitness (log ratio)” value was ≤ -4.2.
For U90A U130A, the “polymerase ribozyme fitness (log ratio)” value was ≤ -4.2.
With C87G G88C U90C A91U U111A the “polymerase ribozyme fitness (log ratio)” value was ≤ -4.2.
With C85G C132G the “polymerase ribozyme fitness (log ratio)” value was ≤ -4.2.
For C85U G94A A121C A138U, the “polymerase ribozyme fitness (log ratio)” value was -4.08.
With G88C U130G G133C G143U A150G the “polymerase ribozyme fitness (log ratio)” value was ≤ -4.2.
With C85U U127C A137U the “polymerase ribozyme fitness (log ratio)” value was ≤ -4.2.
For C85G C103A G143C, the “polymerase ribozyme fitness (log ratio)” value was ≤ -4.2.
In the case of C85U U134C, the “polymerase ribozyme fitness (log ratio)” value is reported as -1.76.
In the case of C85G C87G C103U C132U U134A U135C U145A, the “polymerase ribozyme fitness (log ratio)” value is reported as ≤ -4.2.
In the case of C87A A91U C95U G100A C125U U146G, the “polymerase ribozyme fitness (log ratio)” value is reported as ≤ -4.2.
For G88U C96A U144C U148C, the “polymerase ribozyme fitness (log ratio)” value was ≤ -4.2.
For U90G C96U A97G A147C, the “polymerase ribozyme fitness (log ratio)” value was ≤ -4.2.
In the case of C85U A91U C95G, the “polymerase ribozyme fitness (log ratio)” value is reported as ≤ -4.2.
With U90C A91U C114U C118U U144G the “polymerase ribozyme fitness (log ratio)” value was -4.15.
In the case of G88C G117C A138U G143C, the “polymerase ribozyme fitness (log ratio)” value is reported as ≤ -4.2.
In the case of G86A C105G A138U, the “polymerase ribozyme fitness (log ratio)” value is reported as ≤ -4.2.
In the case of A89U A122U, the “polymerase ribozyme fitness (log ratio)” value is reported as -0.615.
With U90C C93G the “polymerase ribozyme fitness (log ratio)” value was ≤ -4.2.
With G86U C87A U130G the “polymerase ribozyme fitness (log ratio)” value was ≤ -4.2.
In the case of C87G A91C U127G A142U, the “polymerase ribozyme fitness (log ratio)” value is reported as ≤ -4.2.
For C85U A110G C114G C125A, the “polymerase ribozyme fitness (log ratio)” value was ≤ -4.2.
For C87A C131A, the “polymerase ribozyme fitness (log ratio)” value was ≤ -4.2.
With C85G C131G G152U the “polymerase ribozyme fitness (log ratio)” value was ≤ -4.2.
In the case of G88A C96G, the “polymerase ribozyme fitness (log ratio)” value is reported as -3.74.
With C87G U148G the “polymerase ribozyme fitness (log ratio)” value was ≤ -4.2.
For C87G A142U, the “polymerase ribozyme fitness (log ratio)” value was ≤ -4.2.
In the case of G88U A91U C131U, the “polymerase ribozyme fitness (log ratio)” value is reported as ≤ -4.2.
With U90C G126U the “polymerase ribozyme fitness (log ratio)” value was -3.66.
In the case of C87U C103G C116U, the “polymerase ribozyme fitness (log ratio)” value is reported as -1.35.
With G86A U109C C123A C132G the “polymerase ribozyme fitness (log ratio)” value was ≤ -4.2.
For U90A A107G, the “polymerase ribozyme fitness (log ratio)” value was ≤ -4.2.
In the case of C87A U146G, the “polymerase ribozyme fitness (log ratio)” value is reported as ≤ -4.2.
For A89U C99G A142U, the “polymerase ribozyme fitness (log ratio)” value was -2.38.
With C85U C87U C93U U101C G140C A142C the “polymerase ribozyme fitness (log ratio)” value was ≤ -4.2.
For G88U A97U U102G G117U U139G, the “polymerase ribozyme fitness (log ratio)” value was ≤ -4.2.
With C85G C116G G141U the “polymerase ribozyme fitness (log ratio)” value was ≤ -4.2.
With C85G G92A G133A G140A the “polymerase ribozyme fitness (log ratio)” value was ≤ -4.2.
For G88A A113U, the “polymerase ribozyme fitness (log ratio)” value was ≤ -4.2.
In the case of C85U G92A G143U, the “polymerase ribozyme fitness (log ratio)” value is reported as -4.16.

From the RNAGym collection of RNA variant scans (doi:10.1073/pnas.2313332121)
